# In PubChem BioAssay (NCATS):
# Several values for one entry are separate records, joined by “and”; a condition that tells them apart may be missing. Identical values can stand only once. The inconclusive results got no clear call from the source; some entries with a clear call stand among them for comparison. Potencies of inconclusive entries are doubtful fits and often do not repeat. Activity calls are given as the source filed them. The call rests on the fitted dose curve; in most records, active means well fitted cell-killing curve with a large enough effect; inconclusive means small, poorly fitted or top-dose-only effect, or effect the other way; inactive means no such curve, though single readings can be large or run the other way.
# Assay: Viability qHTS for spleen associated tyrosine kinase inhibitor (SYKi) naive MV4-11 cells (AID 1963823); further: nearly all actives have a fitted effect of over 40% in size
# Details: MV4-11 AML viability, CellTiter-Glo luminescence, 72 h; series mostly up to 45 µM
# Method in brief: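 Compounds were dispensed acoustically onto plates, MV4-11 cells (SYKi-naive) added at 500 per well, and plates incubated 72 hr at 37 C. CellTiter-Glo was added and luminescence measured after 10 min.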
# Potency means the concentration at half of the fitted maximal effect; tags describe the fitted curve by direction and shape.
row,Compound,Potency
1,CN1C[C@@H]2c3ccccc3Oc3ccc(Cl)cc3[C@H]2C1,"inconclusive: 16.6 µM [cytotoxic, partial curve]"
2,O=C1OC2(c3ccc(O)cc3Oc3cc(O)ccc32)c2ccccc21,"inconclusive: 21.1 µM [cytotoxic, single point]"
3,Cc1ccc(NC(=O)c2ccc3c(c2)OCCO3)cc1NC(=O)c1ccc2nc(OCCN3CCCC3)ccc2c1,"inconclusive: 0.0257 µM [cytotoxic, full curve, poor fit]"
4,[2H]C([2H])(Nc1nc(-c2ccccc2C([2H])(C([2H])([2H])[2H])C([2H])([2H])[2H])ncc1C)c1ccc(-n2ccnn2)cc1,"inconclusive: 14.8 µM [cytotoxic, partial curve]"
5,CCOC(=O)[C@H](CCc1ccccc1)N[C@@H](C)C(=O)N1Cc2ccccc2C[C@H]1C(=O)O,"inconclusive: 10.6 µM [cytotoxic, partial curve, poor fit]"
6,N#C/C(=C1/Nc2ccccc2S1)c1ccnc(OCc2ccc(CN3CCOCC3)cc2)n1,active: 10.5 µM
7,C[C@H]1C[C@H]2[C@@H]3CCC4=CC(=O)C=C[C@]4(C)[C@H]3C(=O)C[C@]2(C)[C@@]1(O)C(=O)CO,inactive
8,O=C(/C=C\n1cnc(-c2cc(C(F)(F)F)cc(C(F)(F)F)c2)n1)N1CC(F)(F)C1,active: 0.366 µM
9,CC1(C)CCC2(CC1)N[C@@H](C(=O)N[C@@H]1CC[C@@H](C(N)=O)OC1)[C@H](c1ccnc(Cl)c1F)[C@]21C(=O)Nc2cc(Cl)ccc21,active: 16 µM
10,Cn1c(NC[C@@H](N)Cc2ccccc2)nc(-c2ccncc2)c(-c2ccc3ccccc3c2)c1=O,active: 7.42 µM
11,Cc1ncsc1-c1ccc([C@H](C)NC(=O)[C@@H]2C[C@@H](O)CN2C(=O)[C@@H](NC(=O)COCCCOCCNC(=O)C[C@@H]2N=C(c3ccc(Cl)cc3)c3c(sc(C)c3C)-n3c(C)nnc32)C(C)(C)C)cc1,"inconclusive: 0.0042 µM [cytotoxic, full curve]"
12,Cc1c[nH]c(/C=C2\C(=O)Nc3ccccc32)c1CCC(=O)O,"inconclusive: 461 nM [cytotoxic, full curve] and active: 468 nM"
13,C=C1C[C@@H]2CC[C@@]34C[C@H]5O[C@H]6[C@@H](O3)[C@H]3O[C@H](CC[C@@H]3O[C@H]6[C@H]5O4)CC(=O)C[C@@H]3[C@@H](OC)[C@@H](C[C@H](O)CN)O[C@H]3C[C@H]3O[C@@H](CC[C@@H]1O2)C[C@@H](C)C3=C,inconclusive: 0.0009 µM [cytotoxic]
14,CCCOc1ccccc1-c1nc2n[nH]nc2c(=O)[nH]1,inactive
15,[O-][n+]1cccc(-c2nc3c(Cl)cccc3cc2[C@@H](Nc2ncnc3cccnc23)C(F)(F)F)c1,active: 4.17 µM
16,Nc1nc2cc(-c3ccc4ncc(C(=O)N5CCOCC5)n4c3)ccc2o1,"inconclusive: 8.33 µM [cytotoxic, partial curve]"
17,Nc1nc(OC(c2ccc(-c3cccc(F)c3)cc2)C(F)(F)F)cc(-c2ccc(C[C@H](N)C(=O)O)cc2)n1 (stereo not given in full),active: 18.6 µM
18,Nc1cccc2c(N)cccc12,"inconclusive: 13.7 µM [cytotoxic, partial curve]"
19,Cc1c(O)cccc1C(=O)NC(CSc1ccccc1)C(O)CN1CC2CCCCC2CC1C(=O)NC(C)(C)C (stereo not given),active: 16.6 µM
20,CC(=O)Oc1ccc(C2(c3ccc(OC(C)=O)cc3)Oc3ccccc3NC2=O)cc1,active: 5.8 µM
21,CC1(C)C(N(O)C(=O)Nc2ccc(Cl)cc2)N(c2ccc(Cl)cc2)C(=O)N1CC(=O)N/N=C/C=C/c1ccc([N+](=O)[O-])o1 (stereo not given),"inconclusive: 3.32 µM [cytotoxic, full curve]"
22,CCCCC/C=C\C/C=C\CCCCCCCC(=O)NC(C)c1ccccc1 (stereo not given),active: 11.9 µM
23,COC(=O)N[C@H](C(=O)N1CCC[C@H]1c1ncc(-c2ccc(-c3ccc(-c4cnc([C@@H]5CCCN5C(=O)[C@@H](NC(=O)OC)C(C)C)[nH]4)cc3)cc2)[nH]1)C(C)C,active: 18.6 µM
24,COC(=O)[C@H]1[C@@H](O)[C@@]2(O)c3c(OC)cc(O[C@@H]4O[C@@H]([C@@H](O)CO)CO[C@H]4OC)cc3O[C@@]2(c2ccc(OC)cc2)[C@@H]1c1ccccc1,active: 2.35 µM
25,Nc1cc(C(F)(F)F)ccc1S,active: 21.1 µM
26,Cc1ccc(NS(=O)(=O)c2cccc(C#N)c2)c2[nH]cc(C#N)c12,active: 0.166 µM
27,O=C(NCc1ccccc1)[C@H](Cc1ccccc1)NC(=O)[C@H]1O[C@@H]1C(=O)NCCc1ccc(O)cc1,"inconclusive: 16.6 µM [cytotoxic, partial curve]"
28,Oc1cccc(-c2c3nc(c(-c4cccc(O)c4)c4ccc([nH]4)c(-c4cccc(O)c4)c4nc(c(-c5cccc(O)c5)c5ccc2[nH]5)CC4)C=C3)c1,active: 16.8 µM
29,NCCS,"inconclusive: 0.422 µM [rising, partial curve, poor fit]"
30,CC[C@@H](C)Nc1cc(C(=O)NC2CC3CCC(C2)N3c2ccc(C(=O)C3CC3)cn2)c(C)cc1C(N)=O (stereo not given in full),active: 0.0417 µM
